In PubChem BioAssay AID1159614 (National Center for Advancing Translational Sciences (NCATS), 2016):
About 65 (0.1%) of roughly 45,000 compounds were called active. Calls come from the whole dose curve; as a rule, active = well fitted activation curve with a large enough effect; inconclusive = small, poorly fitted or top-dose-only effect; inactive = no such curve, though single readings can be large or run the other way. The list shows a part of the results.

These molecules were tested against Galactocerebrosidase (Homo sapiens) (UniProt P54803) (assay: A Novel Cell-Based Assay to Identify Small Molecules for B -Galactocerebrosidase). Conditions: 145M-Twi-hGALC-G270D cells (Twitcher mouse brain line with human GALC G270D), HMU-beta-Gal fluorescence, 48 h; series mostly up to 57.5 µM; activation: at the top concentration.
Excerpt: Lysosomal storage diseases (LSDs) are caused by genetic mutations in genes encoding proteins important for normal lysosomal function. Globoid cell leukodystrophy (GLD), mostly known as Krabbe disease, is a prototype of the neurological LSDs caused by deficiency of beta-galactocerebrosidase (GALC). In brain specimens of GLD patients, psychosine levels are substantially elevated. At elevated concentrations, psychosine becomes cytotoxic to neuronal cells, particularly to oligodendrocytes (OLG), neural cells responsible for myelin formation. Therefore, the biochemical disturbances in GLD are manifested by different degrees of brain demyelination resulting in a broad spectrum of neurological manifestations. Most of the FDA-approved therapies are based on enzyme replacement therapeutic (ERT) agents, which treat non-neurological symptoms of Gaucher disease, Fabry disease, few mucopolysaccharidoses and Pompe disease. Unfortunately, in GLD, a primarily neurological LSD, ERT agents, as large molecular weight molecules unable to cross the blood-brain barrier, which makes this an inefficacious therapeutic approach. In GLD, increasing the residual GALC activity just above the critical threshold (~10% of wild type enzymatic activity), the cytotoxic levels of psychosine will be reduced, avoiding the OLGs apoptosis and the subsequent demyelination process. This will translate in disease stabilization and amelioration of GLD patient symptoms.
A cell-based assay in 1,536-well plate format was developed to implement a quantitative high-throughput screening (qHTS) assay using GLD-disease relevant cells to identify small molecules that produce enhancements of the residual enzymatic activity levels of mutants GALC found and prevalent in GLD patients. Compounds that are active may therefore have some therapeutic application for GLD. After the treatment of live cells for a determined period, using a fluorescent GALC specific substrate, the mutant residual GALC activity is measured. This cell-based qTHS assay was used to screen part of the MLPCN library for small molecule able to increase the mutant GALC enzymatic activity. In this assay, increased fluorescent signal corresponds to enhanced levels of mutant GALC residual enzymatic activity. Activation is the desired outcome for this assay.
NIH Chemical Genomics Center [NCGC]
NIH Molecular Libraries Probe Centers Network [MLPCN]
Assay Submitter (PI): Gustavo Maegawa MD,PhD, University of Florida, Gainesville, FL
2)#Two cell lines were established for the assay: 145M-Twi-hGALC-G270D (brain-derived Twitcher cell line stably expressing human GALC-G270D) and 145M-Twi-hGALC-WT (same 145M-Twi stably expressing human GALC wild type). The Twitcher is the murine C57B/6 model for GLD with naturally occurring homozygous nonsense GALC mutation. The 145M-Twi cell line was established at Maegawa lab (Ribbens J et al 2014).
a.#Media: DMEM/F12 (1:1) with 10% fetal bovine-serum (FBS) with penicillin/streptomycin (PS-1X - 100 I.U./mL of penicillin+100 ug/mL of streptomycin).
b.#The 6-Hexadecanoylamino-4-methylumbelliferyl-b-D-galactoside (HMU-B-gal) substrate was prepared as per Wiederschain et al 1992. Using 20-mL borosilicate tubes, 2.20 mg of HMU-b-Gal was added in each tube to prepare substrate-film with a final air-nitrogen stream evaporation to remove all diluent solvents.
c.#The HMUb-Gal substrate buffer consists of 0.2 M Na2HPO4 (sodium phosphate dibasic)/ 0.1 M Citric Acid with the pH adjusted to 5.2 using HCl. Sodium Azide at 0.02% and Sodium Taurocholate (NaTC) at 1 mg/mL were added to this substrate buffer.
d.#The HMU-b-Gal stopping buffer consist of 0.5 M NaHCO3 (sodium bicarbonate) /0.5 M Na2CO3 (sodium carbonate). […] Triton X-100 at 0.25% was added.
4)#Preparation of HMU-b-Gal substrate tubes
Adding 18.6 mL of the HMUb-Gal substrate buffer to each 20-mL tube (2.20 mg of HMU-b-Gal) will reach a concentration of 0.2 mM. Vortex well the tube until the solution is fully homogenized (clear cloudy solution). […]
Note: 0% is about no effect; nearly all actives have a fitted effect of over 65% in size.

UniProt P54803, sequence (P54803 whole entry, looked up): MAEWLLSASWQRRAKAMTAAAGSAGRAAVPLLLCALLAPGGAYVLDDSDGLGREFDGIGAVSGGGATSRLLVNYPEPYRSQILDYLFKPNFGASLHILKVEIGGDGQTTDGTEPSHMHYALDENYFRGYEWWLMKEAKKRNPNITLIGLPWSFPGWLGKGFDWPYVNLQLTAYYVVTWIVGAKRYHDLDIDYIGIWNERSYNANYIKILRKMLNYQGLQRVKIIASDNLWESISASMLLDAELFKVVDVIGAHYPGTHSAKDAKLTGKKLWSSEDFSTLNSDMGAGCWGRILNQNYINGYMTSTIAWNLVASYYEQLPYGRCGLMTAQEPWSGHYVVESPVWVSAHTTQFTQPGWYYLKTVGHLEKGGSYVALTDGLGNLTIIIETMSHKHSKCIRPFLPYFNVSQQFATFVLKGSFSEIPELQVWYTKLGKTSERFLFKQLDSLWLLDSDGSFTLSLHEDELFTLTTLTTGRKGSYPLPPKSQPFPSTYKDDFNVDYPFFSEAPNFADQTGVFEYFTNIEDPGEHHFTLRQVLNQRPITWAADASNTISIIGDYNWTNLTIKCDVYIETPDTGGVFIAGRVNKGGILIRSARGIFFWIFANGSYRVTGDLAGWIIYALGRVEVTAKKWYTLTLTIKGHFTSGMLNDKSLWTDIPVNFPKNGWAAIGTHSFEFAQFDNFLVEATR

activation, inactive:
COc1ccc(CCNC(=O)c2cc3cccc4c3n2CC(C)S4)c(OC)c1OC (stereo unspecified) -2.07%
CC(C)(C)OC(=O)N1CCC(c2c(C(=O)O)cnn2-c2ccc(F)cc2F)CC1 -9.41%
O=C(CN1C(=O)COc2ccc(S(=O)(=O)N3CCCCCC3)cc21)N1CCN(c2cccc(Cl)c2)CC1 -3.13%
COc1ccc(C(=O)c2cn(Cc3ccc(F)cc3)c3c(F)cc(F)cc3c2=O)cc1 -14.6%
Fc1ccc(-c2nnc(CN3CCN(c4ccccn4)CC3)o2)cc1 -12.2%
O=C(C1COc2cc(S(=O)(=O)Nc3ccc(Cl)cc3)ccc2O1)N1CCCC1 (stereo unspecified) -12.8%
CCc1ccc(S(=O)(=O)c2nnn3c2nc(N2CCN(CC)CC2)c2sccc23)cc1 -13.7%
CCC[C@H](N[C@@H](C)C(=O)N1[C@H](C(=O)O)C[C@@H]2CCCC[C@@H]21)C(=O)OCC -14.5%
COc1ccccc1C(=O)Nc1ccc(-c2nc3cc(C)cc(C)c3o2)cc1 -7.56%
CCOC(=O)c1ccc(N2C(=O)c3n[nH]c(-c4ccco4)c3C2c2cccc(F)c2)cc1 (stereo unspecified) -13.5%
Cc1ccc(NC(=O)CSc2nc3ccc(NC(=O)c4cccc(Cl)c4)cc3s2)c(C)c1 -7.41%
Cc1ccc(Cn2c(C)c(CNCc3ccccc3F)c(C(=O)O)c2C)cc1 -10.8%
CCc1ccccc1N(C)C(=O)c1cc2c(s1)-c1c(C)cccc1OC2 -13.5%
COc1cc(C2C(C(=O)Nc3ccccc3)=C(C)Nc3nc(SCC(=O)c4ccc(C)cc4)nn32)ccc1O (stereo unspecified) -12.3%
CC(C)NS(=O)(=O)c1ccc(OCC(=O)N2CCN(c3cccc(Cl)c3)CC2)cc1 -30.6%
O=C(Cn1ncc2c3ccccc3n(Cc3ccccc3)c2c1=O)NCc1ccccc1 -16.9%
COc1ccc(-c2nc3c(c(SCC(=O)Nc4cc(C)cc(C)c4)n2)Cc2c(CO)cnc(C)c2O3)cc1 -7.53%
COc1cccc(CN2C(=O)C3(SCC(=O)N3c3ccc(F)cc3)c3ccccc32)c1 (stereo unspecified) -13.7%
Cc1ccc(CN(Cc2cccn2-c2nnc(N3CCCC3=O)s2)C(=O)Nc2cc(C)cc(C)c2)cc1 -1.02%
O=C(C1CCCN(S(=O)(=O)c2cccs2)C1)N1CCN(c2ccccc2F)CC1 (stereo unspecified) -15.4%
CN1C(=O)c2ccccc2Sc2ccc(NC(=O)NCc3ccccc3Br)cc21 -15%
Cc1nc2sc(C)c(C)n2c(=O)c1S(=O)(=O)NCCc1ccc(Cl)cc1 -1.19%
CC(=O)c1ccc(NC(=O)c2cn(C)c(=O)c3ccccc23)cc1 21.2%
O=C(NCc1cccc(Cl)c1)c1ccc2c(c1)nc1n2CCOC1 -0.473%
Cc1ccc(CN(Cc2ccco2)C(=O)c2ccccc2Cl)o1 -11.5%
Cc1cccc(C(=O)Nc2nc3c(s2)CCCC3)c1 -20.9%
COc1ccc(-c2nc(CCNC(=O)Cc3ccc(F)cc3)cs2)cc1 1.28%
Nc1ccc(C(=O)NCC(=O)O)cc1 -11.1%
COc1ccc(NS(=O)(=O)c2ccc(N)cc2)nn1 -6.9%
CCOC(=O)N1CCc2c(sc3c2c(=O)n(CCc2ccccc2)c(=O)n3Cc2ccc(C)cc2C)C1 -7.1%
c1ccc(CNc2ncnc3[nH]ncc23)cc1 -20.7%
O=C(NC1CC(=O)N(c2ccccc2)C1)c1cccs1 (stereo unspecified) -8.81%
Cc1cccc(N2CCN(C(=O)CCNS(=O)(=O)c3ccc4c(c3)CCN4C(=O)C3CC3)CC2C)c1 (stereo unspecified) -41.2%
CCc1ccccc1NC(=O)N1CC(CC)Oc2ccc(Cl)cc21 (stereo unspecified) -11.1%
COc1ccc(N2CCN(C(=O)c3c(C)nn(-c4ccc(F)cc4)c3-n3cccc3)CC2)cc1 -37.2%
CSc1ccc(CCNC(=O)c2ccc3c(c2)nc2n3CCC(C)C2)cc1 (stereo unspecified) -19.9%
CCOCCc1nn2c(=O)cc(COC(=O)c3ccccc3NC(=O)c3cccs3)nc2s1 -6.91%
CCN1C(C(=O)c2ccccc2)=C(OC(=O)c2ccc(Cl)cc2)c2ccccc2S1(=O)=O -0.159%
Cc1cccc(OC(C)C(=O)N2CCC(c3nc4ccccc4o3)CC2)c1C (stereo unspecified) -19.1%
CCOc1ccc(Br)cc1C1C(C(=O)Nc2ccccc2OC)=C(C)Nc2nnnn21 (stereo unspecified) -5.54%
CCc1ccc2oc(-c3cccc(NC(=O)c4ccc(-c5cccc([N+](=O)[O-])c5)o4)c3)nc2c1 -14.6%
COc1cccc(CN2c3ccccc3-c3nc(SCC(=O)Nc4cccc(C)c4)ncc3S2(=O)=O)c1 -12.4%
COc1ccc(-c2cc(C(F)(F)F)nc(NCc3ccccc3)n2)cc1OC -2.51%
CCOc1ccc(NCc2cccn2-c2nnc(N3CCC(C(=O)NC(C)c4ccccc4)CC3)s2)cc1 (stereo unspecified) -10.5%
CC1CCc2c(sc3nnn(CC(=O)Nc4cccc(C(F)(F)F)c4)c(=O)c23)C1 (stereo unspecified) -11.6%
COc1ccc(-n2c(=O)c3c4c(sc3n(Cc3ccccc3)c2=O)CCC4)c(OC)c1 -8.84%
CC(=O)N1c2ccc(S(=O)(=O)NCCc3cccc(C)c3)cc2CC1C (stereo unspecified) -6.04%
Cc1oc(-c2ccc(C(=O)N(C)Cc3ccccc3)cc2)nc1CN1CCc2ccccc21 -31.8%
CCOC(=O)c1cccc(NC(=O)N2Cc3ccccc3Oc3ncccc32)c1 -33.5%
CCn1c(=O)c(=O)n(CC)c2cc(N3CCCCC3)c(NC(=O)c3cccc(OC)c3)cc21 -20.3%
CCOc1cccc(NC(=O)CSc2ncc(-c3ccc(Cl)cc3)[nH]2)c1 -14%
CCN(C(=O)c1cc(S(=O)(=O)N2CCCCC2)c[nH]1)c1ccc(OC)cc1 1.42%
CCOC(=O)c1ccc(-c2ccc(/C=C(\C#N)C(=O)Nc3cccc(C)c3)o2)cc1 -9.05%
Cc1ccc(NC(=O)CC2Sc3ccccc3NC2=O)c(C)c1 (stereo unspecified) -3.32%
CC1(C)OC(=O)NC1=O -19.4%
CCOc1ccc(-n2c(-c3ccc(OC)cc3)cc3c2CC(C)(C)CC3=O)cc1 -1.87%
C=Cc1ccc(CSc2nc(-c3ccc(Cl)cc3)nc3c2Cc2c(CO)cnc(C)c2O3)cc1 -9.42%
Cc1cccc(C)c1NC(=O)C1CCN(S(=O)(=O)c2cccc3nsnc23)CC1 -26.6%
Cn1c(NCc2ccccc2F)nc2ccccc21 -13%
COc1cc(Cl)c(C)cc1NC(=O)CSCc1nc(-c2ccc(OC)c(OC)c2)no1 -13.2%
Cc1ccc(C)c(Cn2cc(CCC(=O)NC3CCCCC3)c3ccccc32)c1 1.71%
CCOc1ccccc1C(=O)N1CCc2cc(OC)c(OC)cc2C1COc1ccc2c(C)cc(=O)oc2c1 (stereo unspecified) -10.9%
Cc1ccc(-n2ncc3c(Nc4ccc5c(c4)OCCO5)ncnc32)cc1C -23.2%
COc1ccc(CNC(=O)c2cnn(-c3ccc(C)cc3)c2C2CCN(C(=O)OC(C)(C)C)CC2)cc1 -46.7%
COc1ccc(-c2nc(SCC(=O)NC3CCCC3)c(-c3ccccc3)[nH]2)cc1OC -21.7%
CCOC(=O)C1CCN(C(=O)c2ccc3c(c2)sc2nc(-c4ccc(OCC)cc4)cn23)CC1 -14.5%
Cc1ccc(NC(=O)Cn2ccn(Cc3ccc(Cl)cc3)c(=O)c2=O)cc1C -12.8%
COc1ccc(OC)c(Nc2cc(C(=O)NCc3ccccc3)c3ccccc3n2)c1 22.2%
CC(=O)c1cccc(-n2c(CCC(=O)O)ccc2-c2ccccc2)c1 -2.78%
CCN1CCN(C(c2ccc(Cl)cc2)c2c(O)cc(C)n(CCOC)c2=O)CC1 (stereo unspecified) -12.5%
Cc1nc2ncnn2c(C)c1CCC(=O)NCc1ccc(Cl)cc1 -15.2%
O=C(CSc1ncc(S(=O)(=O)c2ccc(Br)cc2)c(=O)[nH]1)NCc1ccccc1Cl -13.4%
CCOc1ccc(NC(=O)NC(CC)Cn2nnc3ccccc3c2=O)cc1 (stereo unspecified) 13.3%
Cc1ccc(OCCSc2nc3ccccc3n2CCC(=O)O)cc1C -10.3%
COc1ccc(/C=C(\NC(=O)c2ccccc2)C(=O)NC2CCCCC2)cc1 -5.58%
Cc1cc(C)cc(N(CC(=O)Nc2ccc(C(F)(F)F)cc2)S(=O)(=O)c2c(C)[nH]c(=O)[nH]c2=O)c1 -13.8%
CCCCn1cnc2cc(NC(=O)c3cc(OC)c(OC)c(OC)c3)ccc21 -23.1%
CCCC(=O)N(c1ccc2oc3c(c2c1)CCCC3)S(=O)(=O)c1ccc(CC)cc1 -18.5%
COc1cccc(CNC(=O)C2CCC(CNS(=O)(=O)c3cccs3)CC2)c1 (stereo unspecified) -11.5%
O=c1c(S(=O)(=O)c2ccccc2)cn(Cc2ccc(F)cc2)c2cc(N3CCCC3)c(F)cc12 -10.1%
COc1ccc(NCc2nc3ccccc3n2CCOc2ccccc2C)cc1 -7.36%
Cc1ccccc1NC(=O)c1ccc(NC(=O)N2CCSc3ncccc32)cc1 -14.4%
COc1ccc(OC)c(-n2c(=O)[nH]c3cc(C(=O)NCCc4ccc(OC)c(OC)c4)ccc3c2=O)c1 2.18%
CC1CCN(S(=O)(=O)c2ccc3c(c2)N(CC(=O)NCc2ccccc2Cl)C(=O)CO3)CC1 3.38%
COc1cccc(NC(=O)c2sc(-n3nc(C)c(Cc4ccccc4Cl)c3C)nc2C)c1 -2.76%
Cc1ccc(CNS(=O)(=O)c2ccc(F)c(C(=O)Nc3ccc(C)c(F)c3)c2)cc1 -17.8%
Cc1ccc(N(C)C(=O)Cn2nc(Cc3ccncc3)c3ccccc3c2=O)cc1C 2.24%
COCCn1c(C)cc(O)c(C(c2ccccc2)N2CCN(c3ccc(F)cc3)CC2)c1=O (stereo unspecified) 8.74%
COC(=O)c1c(SC)nc2ccccc2c1OCc1cccc(C)c1 -10%
O=C(NCCS(=O)(=O)N1CCN(c2ccccc2F)CC1)c1cc(=O)c2ccccc2o1 -2.17%
O=C(Nc1ccc(F)cc1)c1ccc(-n2cnc3cccnc32)cc1 -30.4%
O=C(NCCc1ccc(Cl)cc1)c1ccc(CS(=O)(=O)Cc2ccc(F)cc2)o1 -14.5%
CCC(CC)C(=O)Nc1cccc(-c2nc3cccnc3s2)c1 -6.58%
COc1cccc(COC(=O)c2nn(-c3ccccc3)nc2N)c1 8.15%
Cc1ccc(CNC(=O)C2CCN(c3nn4cc(-c5ccc(F)cc5)nc4s3)CC2)cc1 -11%
CCOC(=O)c1[nH]c(C)c(CCC(=O)Nc2cc(Cl)ccc2C)c1C -10.3%
